Measured values reported in the supplement of paper PMC11125491.
± gives the standard deviation of the averaged measurements. Growth of baker's yeast expressing single-residue variants of Pneumocystis jirovecii dihydrofolate reductase in 8.8 or 44 µM methotrexate (about 75% and 90% inhibition of the wild type). Selection coefficient per generation; 0 = like wild type, above 0 = less sensitive, below 0 = more sensitive or loss of function. No active / inactive call per row; the paper calls resistant above 0.220 (8.8 µM) or 0.243 (44 µM) together with a significance test. At 44 µM about 15% of codons end with one read or none, so the lowest values are floors (replicate rank correlation 0.74; 0.94 at 8.8 µM).

B1: UniProt A0EPZ9; numbered along this chain (parent)
chain: MDWQKSLTLIVALTLSRGIGLKNDLPWKLKSDMMFFSRVTSGLLVTRSTGQMNVVLMGRKTWESLPAHSRPLKNRINVVISRQEVLDLGGGAYHARSLDDALALLSQIYDSTSKIQLNRVFVIGGGELCKAAMEHSRLNRIIATVIHNEVDCDVFFPIDFRSSQSCLPWRKQDHSVLEAWVGSKVPQGKINENGFIYEFEMWIRDI

Variants of: B1
Test: selection coefficient against synonymous wild-type codons (log2 per generation); higher = faster growth than wild type
Settings: with Saccharomyces cerevisiae carrying the variant on a plasmid
Description: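 Pooled growth of yeast carrying single-residue variants of P. jirovecii dihydrofolate reductase (own DFR1 gene intact), two passages at 30 °C, three cultures, sequenced before and after. Codons with under 15 starting reads are left out; codons of one change are averaged.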

Variant	selection coefficient against synonymous wild-type codons (log2) (methotrexate 8.8 µM)	selection coefficient against synonymous wild-type codons (log2) (methotrexate 44 µM)
H147V	-0.215 ± 0.052	-0.369 ± 0.11
A101E	-0.687 ± 0.14	-0.327 ± 0.024
A101I	-0.612 ± 0.11	-0.197 ± 0.036
V79T	-0.755 ± 0.057	-0.294 ± 0.055
T144P	-0.476 ± 0.12	0.353 ± 0.028
T144F	-0.604 ± 0.03	-0.401 ± 0.056
F195G	0.269 ± 0.061	0.256 ± 0.052
F195H	0.2 ± 0.028	0.171 ± 0.12
F195K	0.244 ± 0.062	0.168 ± 0.062
F195Y	-0.0109 ± 0.02	-0.0959 ± 0.097
F195I	0.0408 ± 0.03	-0.0381 ± 0.092
Y93N	-0.489 ± 0.039	0.0117 ± 0.039
L105T	-0.433 ± 0.12	-0.309 ± 0.072
A132I	-0.0737 ± 0.051	-0.111 ± 0.12
G126W	0.0167 ± 0.01	-0.0189 ± 0.12
G126T	0.686 ± 0.04	1.06 ± 0.049
V122H	-0.549 ± 0.094	-0.0906 ± 0.026
V122G	-0.769 ± 0.098	-0.299 ± 0.038
L128I	-0.246 ± 0.022	-0.212 ± 0.14
L128N	-0.726 ± 0.046	-0.18 ± 0.07
L128W	-0.388 ± 0.08	-0.297 ± 0.037
L88M	-0.384 ± 0.059	-0.333 ± 0.058
G50D	0.0931 ± 0.035	0.091 ± 0.072
G50P	-0.132 ± 0.062	-0.135 ± 0.067

Variant	selection coefficient against synonymous wild-type codons (log2) (methotrexate 8.8 µM)	selection coefficient against synonymous wild-type codons (log2) (methotrexate 44 µM)
S64E	-0.331 ± 0.12	-0.32 ± 0.13
S64H	-0.448 ± 0.19	-0.241 ± 0.1
W169Y	-0.112 ± 0.044	-0.211 ± 0.047
W169C	-0.142 ± 0.08	-0.205 ± 0.062
E134M	-0.125 ± 0.015	-0.047 ± 0.03
E134C	-0.142 ± 0.022	-0.153 ± 0.077
A12C	0.172 ± 0.031	0.151 ± 0.11
R170P	-0.504 ± 0.15	-0.235 ± 0.12
R170Y	-0.0732 ± 0.044	-0.0659 ± 0.039
I146M	0.219 ± 0.042	0.188 ± 0.051
I146C	0.237 ± 0.06	0.203 ± 0.022
G194R	-0.253 ± 0.17	-0.19 ± 0.087
S16D	0.148 ± 0.044	0.118 ± 0.068
R75L	-0.401 ± 0.08	-0.165 ± 0.13
Q83K	-0.0113 ± 0.04	-0.0466 ± 0.056
Q83F	-0.357 ± 0.053	-0.0744 ± 0.042
E192G	0.0309 ± 0.053	-0.0505 ± 0.058
L104V	-0.33 ± 0.069	-0.27 ± 0.14
L104A	-0.449 ± 0.12	-0.0549 ± 0.37
K30L	0.0128 ± 0.061	-0.00468 ± 0.073
K30T	0.166 ± 0.061	0.176 ± 0.12
I76C	-0.425 ± 0.22	-0.136 ± 0.051
R137T	-0.0588 ± 0.023	-0.0694 ± 0.094
T49K	-0.11 ± 0.089	-0.0931 ± 0.12

Variant	selection coefficient against synonymous wild-type codons (log2) (methotrexate 8.8 µM)	selection coefficient against synonymous wild-type codons (log2) (methotrexate 44 µM)
T49D	0.0419 ± 0.016	-0.0293 ± 0.061
K171S	-0.106 ± 0.063	-0.155 ± 0.21
G125M	-0.82 ± 0.16	-0.383 ± 0.029
L44S	0.133 ± 0.018	0.139 ± 0.064
L44H	0.105 ± 0.032	0.00649 ± 0.12
L44W	-0.117 ± 0.022	-0.163 ± 0.12
L44K	0.135 ± 0.0068	0.178 ± 0.011
S81Y	-0.54 ± 0.079	-0.151 ± 0.074
G124L	-0.59 ± 0.18	-0.156 ± 0.24
G124A	0.737 ± 0.043	1.59 ± 0.046
E178H	-0.24 ± 0.034	-0.259 ± 0.12
C129Q	0.588 ± 0.013	0.879 ± 0.068
C129Y	0.718 ± 0.028	1.16 ± 0.067
C129D	0.484 ± 0.012	0.728 ± 0.078
C129T	0.539 ± 0.04	0.828 ± 0.045
C129I	0.54 ± 0.027	0.776 ± 0.062
K28M	0.0698 ± 0.033	-0.0764 ± 0.12
F121M	-0.116 ± 0.02	-0.121 ± 0.11
F121N	-0.581 ± 0.083	-0.0791 ± 0.041
V145Q	-0.0249 ± 0.12	-0.171 ± 0.13
V145F	-0.1 ± 0.022	-0.113 ± 0.12
T40E	-0.676 ± 0.027	-0.386 ± 0.084
T40F	-0.57 ± 0.022	-0.364 ± 0.061
T40Y	-0.647 ± 0.035	-0.4 ± 0.028

Variant	selection coefficient against synonymous wild-type codons (log2) (methotrexate 8.8 µM)	selection coefficient against synonymous wild-type codons (log2) (methotrexate 44 µM)
Y197E	-0.0988 ± 0.057	-0.297 ± 0.037
Y197R	0.543 ± 0.049	0.668 ± 0.057
I10Q	0.0971 ± 0.094	0.24 ± 0.023
R47S	0.0405 ± 0.047	0.0292 ± 0.074
R47H	-0.00202 ± 0.07	-0.0181 ± 0.1
K22M	-0.0699 ± 0.084	-0.123 ± 0.2
K22Q	0.0332 ± 0.052	-0.0191 ± 0.059
G42I	-0.214 ± 0.074	-0.203 ± 0.046
M133G	-0.416 ± 0.091	-0.291 ± 0.13
R161K	0.143 ± 0.041	0.0842 ± 0.042
R161Q	0.128 ± 0.05	0.077 ± 0.049
P26V	-0.0874 ± 0.046	-0.0361 ± 0.068
P26H	-0.27 ± 0.18	-0.0212 ± 0.061
I142Y	0.371 ± 0.027	0.65 ± 0.081
R204D	-0.364 ± 0.077	-0.363 ± 0.029
R204Y	-0.357 ± 0.044	-0.192 ± 0.014
E198A	-0.161 ± 0.058	-0.209 ± 0.11
C152Q	0.362 ± 0.013	0.372 ± 0.024
N23W	0.126 ± 0.024	0.00408 ± 0.14
N23H	0.076 ± 0.066	0.0239 ± 0.047
L177D	-0.679 ± 0.18	-0.474 ± 0.032
L177T	0.0185 ± 0.05	-0.0877 ± 0.087
I19L	0.132 ± 0.056	0.164 ± 0.12
I19N	0.181 ± 0.082	0.295 ± 0.11

Variant	selection coefficient against synonymous wild-type codons (log2) (methotrexate 8.8 µM)	selection coefficient against synonymous wild-type codons (log2) (methotrexate 44 µM)
W27C	0.0555 ± 0.027	0.122 ± 0.047
S69M	0.383 ± 0.0098	0.407 ± 0.017
V55W	-0.58 ± 0.036	-0.333 ± 0.041
W180G	-0.113 ± 0.052	-0.193 ± 0.17
W180A	0.176 ± 0.032	0.0178 ± 0.17
L98Y	-0.502 ± 0.2	-0.156 ± 0.12
P71K	0.394 ± 0.018	0.488 ± 0.016
I115F	-0.0738 ± 0.03	0.18 ± 0.24
I115W	-0.231 ± 0.037	-0.166 ± 0.12
V120F	-0.347 ± 0.16	-0.15 ± 0.035
A92D	-0.255 ± 0.092	0.0482 ± 0.18
I203C	0.0871 ± 0.029	0.0454 ± 0.037
I203L	-0.0665 ± 0.054	-0.0457 ± 0.079
L15T	0.338 ± 0.026	0.328 ± 0.029
G188E	-0.0205 ± 0.066	-0.0372 ± 0.062
G188I	-0.263 ± 0.2	-0.12 ± 0.1
G188A	-0.0985 ± 0.087	-0.248 ± 0.067
S136T	-0.0562 ± 0.041	-0.0732 ± 0.17
S136H	-0.0533 ± 0.03	-0.105 ± 0.15
S136R	-0.108 ± 0.04	-0.116 ± 0.11
